# Screen size: about 50,000 compounds; about 800 (1.6%) showed an effect of 50% or more. This is one part of the list.
# Molecular target: Bcl-2-like protein 10 (Homo sapiens) (UniProt Q9HD36)
# Test: Phenotype converters, Bcl-B/TR3 peptide binding displacement, primary biochemical FP (AID 1240);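 also: 0% = Bcl-B with tracer peptide and DMSO and 100% = tracer peptide lacking Bcl-B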
# Conditions: GST-Bcl-B / FITC-TR3 peptide fluorescence polarization; stronger effect = higher value; compound at 3.75 mg/L
# Chain of UniProt Q9HD36 (Q9HD36 whole entry, looked up): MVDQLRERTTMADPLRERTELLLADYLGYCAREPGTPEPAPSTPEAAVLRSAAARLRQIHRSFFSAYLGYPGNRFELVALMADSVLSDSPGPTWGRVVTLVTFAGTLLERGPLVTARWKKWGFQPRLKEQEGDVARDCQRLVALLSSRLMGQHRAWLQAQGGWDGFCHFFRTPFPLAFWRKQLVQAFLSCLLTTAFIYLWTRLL
row,Compound,displacement [%]
1,O=C(CN1CCCCC1)Nc1ccccc1I,1.3
2,COC(=O)c1sccc1NC(=O)/C=C/c1ccc(OC)cc1,6.8
3,O=[N+]([O-])c1c(Nc2ccccc2O)ncnc1Nc1ccccc1O,28.4
4,COC(C)(C)C(=O)CC(=O)C(C)(C)C,3.4
5,CS(=O)(=O)N(Cc1ccc(Cl)cc1)c1ccc(C(=O)NCc2ccco2)cc1,-14.6
6,CNC(=O)/C=C1\NC(C)(C)Cc2ccccc21,-7.1
7,Cc1ccc(NC(=O)NC2CCCC2)cc1,2.4
8,C=CCOc1ccc(/C=C2\C(=O)NC(=S)N(c3ccccc3)C2=O)cc1OC,2.2
9,O=C(O)c1cccc(C(=O)O)c1N(c1ccccc1)c1ccccc1,10.7
10,O=S(=O)(NCc1ccccc1Cl)c1ccccc1,-3.6
11,O=C(Nc1ccc(S(=O)(=O)c2ccc(NC(=O)C(F)(F)F)cc2)cc1)C(F)(F)F,0.6
12,CCOC(=O)c1c(C)oc2ccc(N(C(=O)c3ccncc3)S(=O)(=O)c3ccc(C)cc3)cc12,-1.8
13,Cc1ccc(-n2nc(C)c3c(=O)oc(C)cc32)cc1,16.1
14,COc1ccc(NS(=O)(=O)c2ccc(NC(=S)NC(=O)C34CC5CC(CC(C5)C3)C4)cc2)nn1,3.6
15,CC(=O)N(C)c1ccc(NC(=O)COc2ccc3ccccc3c2)cc1,1.8
16,COc1ccccc1N1CCN(/N=C\c2ccc(O)cc2O)CC1,-4.6
17,CCOC(=O)C1=C(C)NC(=O)NC1c1ccc(F)cc1F (stereo not given),-4.9
18,COc1cccc(NC(=O)CN(c2ccc(C)cc2)S(C)(=O)=O)c1,-2.2
19,CC1(C)Oc2ccc3ccc(=O)oc3c2/C(=C/N2CCOCC2)C1=O,-5.9
20,Cc1onc(-c2ccccc2)c1C(=O)Nc1ccc([N+](=O)[O-])cc1Br,5.4
21,O=C(O)CCC(=O)Nc1sc2c(c1C(=O)Nc1ccccc1)CCCC2,4.5
22,COC(=O)C1=NN(C(C)=O)C2C(=O)N(c3cccc(C)c3)C(=O)C12 (stereo not given),7.5

row,Compound,displacement [%]
1,O=C(O)CN(c1ccccc1[N+](=O)[O-])S(=O)(=O)c1ccccc1,6.8
2,Cc1ccc(S(=O)(=O)N(CCc2ccccc2)CC(=O)NCc2cccnc2)cc1,14.2
3,COc1ccccc1NC(=O)C1CC(C)=C(C)CC1C(=O)O (stereo not given),-2.9
4,Cc1c(C)c(COCc2c(C)c(C)c(C=O)c(C)c2C)c(C)c(C)c1C=O,-6.7
5,CCOc1cccc(-c2nnc(NC(=O)Nc3ccccc3)s2)c1,7.8
6,Cc1cc(C)c(NC(=O)C(C)Sc2nc3ccccc3s2)c(C)c1 (stereo not given),8.7
7,Cc1cc(C)c(NC(=O)C(C)Sc2ccccn2)c(C)c1 (stereo not given),39.1
8,c1ccc(Nc2ccccc2Nc2ccccn2)nc1,22.6
9,O=C1Nc2ccc(Br)cc2C12NN=C(c1ccccc1)S2 (stereo not given),-8
10,CCCn1c(/N=C/c2ccccc2O)nc2ccccc21,10.9
11,COc1ccc(/C=C(\NC(=O)c2ccc([N+](=O)[O-])cc2)C(=O)NCCN2CCOCC2)cc1,6.8
12,COC(=O)c1ccccc1NC(=O)CN(c1ccc(C(C)C)cc1)S(=O)(=O)c1ccccc1,1.1
13,O=C1c2ccccc2C(=O)N1CCCc1nc2ccccc2c(=O)n1-c1nccs1,2.1
14,CC1(C)CC(=O)C2=C(C1)c1c(ccc3ccccc13)NC2c1ccccc1[N+](=O)[O-] (stereo not given),37.3
15,CCOc1ccc(N(CC(=O)Nc2ccc(OC)c(OC)c2)S(=O)(=O)c2ccc(SC)cc2)cc1,9.6
16,COc1ccc(N(CC(=O)NC(C)(C)C)S(=O)(=O)c2ccc(C)cc2)cc1OC,6.6
17,CCOc1ccc(/C=C2\C(=O)NC(=S)N(c3ccccc3C)C2=O)cc1Cl,16.6
18,Cc1ccc(S(=O)(=O)Nc2cc(Cl)ccc2Cl)c(C)c1,10
19,COC(=O)c1ccc(NC(=S)NC(=O)c2ccn(C)n2)cc1,-6.9
20,CSc1nc2sc3c(c2c2nnnn12)CCN(C)C3,13.5
21,Cc1cc(C)n(-c2cc(N/N=C/c3cccc(Cl)c3)nc(C)n2)n1,-8.5
22,COc1ccc(CN2CCN(Cc3ccccc3Cl)CC2)c2ccccc12,-1.7

row,Compound,displacement [%]
1,Cc1ccc(C2=C/C(=C\c3cc([N+](=O)[O-])ccc3Cl)C(=O)O2)cc1,7.7
2,NC1=NC(=O)/C(=C/c2cc(Br)ccc2OCc2ccccc2)S1,47.9
3,NC(=S)n1[nH]c(-c2ccccc2)c(N=Nc2ccc(C(=O)O)cc2)c1=O,-7.8
4,CCC1(C)CC(CCNCc2ccc(F)cc2)(c2ccc(C)cc2)CCO1 (stereo not given),-10.3
5,CCOc1cc(/C=N/Nc2nc(N3CCOCC3)nc(N3CCOCC3)n2)ccc1OC(=O)c1ccco1,0.9
6,Cc1ccc2ncnc(Nc3ccc(Cl)cc3)c2c1,-13.5
7,CCSC(C)CC1C/C(=N/O)c2c(CC)noc2C1 (stereo not given),2.8
8,CC(C)(C)OC(=O)N1N=C(C(F)(F)F)CC1(O)C(C)(C)C (stereo not given),10
9,O=C(NCCCN1CCOCC1)c1ccc(Br)cc1,3.7
10,CC1CC(Nc2ccccc2)c2ccccc2N1C(=O)c1ccccc1[N+](=O)[O-] (stereo not given),-1.1
11,O=C(CSc1nc2ccccc2s1)Nc1ccc(/C=C/c2ccccc2)cc1,-9.6
12,Cc1ccc(C(=O)NNC(=O)c2ccc(O)cc2O)cc1,-23.6
13,COc1ccc(CCNC(=O)c2c(Cl)ccc(Cl)c2OC)cc1OC,57
14,COc1ccc(Br)cc1/C=C/C(=O)Nc1cccc(-c2nc3ncccc3o2)c1C,95.3
15,COc1ccccc1CNCc1cccc(Cl)c1,-23.6
16,CCOc1cc(/C=N/NC(=O)C(=O)N2CCCC2)ccc1O,6.3
17,Cc1cc(C(=O)NCc2ccc(S(N)(=O)=O)cc2)ccc1[N+](=O)[O-],3
18,Cc1onc(-c2ccccc2Cl)c1-c1nc(-c2ccncc2)no1,36.3
19,O=C1C(=O)N(CC2CCCO2)C(c2ccccc2Cl)/C1=C(/O)c1ccccc1 (stereo not given),-11.8
20,S=C(NCc1ccc2c(c1)OCO2)Nc1ccccc1,-6
21,Brc1ccc(-c2nc(-c3ccccn3)no2)cc1,-11.7
22,CCOc1ccc(N(CC(=O)NC(C)C)S(=O)(=O)c2ccc(SC)cc2)cc1,25.9

row,Compound,displacement [%]
1,Cc1cccc(N2C(=O)S/C(=C/c3cccc([N+](=O)[O-])c3)C2=O)c1,14.3
2,CCOc1ccc(NC(=O)c2cccc3c(Br)cccc23)cc1,-7.6
3,CCOc1ccc2oc(C)c(C(=O)OCCOC)c2c1,9.3
4,COc1ccc(-c2nn(CN3CCOCC3)c(=S)n2-c2ccccc2)cc1,9.1
5,COc1ccc(C(=O)CN2CCN(C(=O)C3CC3)CC2)cc1,8.5
6,COc1ccc(C(=O)Oc2cccc3cccnc23)cc1OC,1.9
7,Cc1ccc(S(=O)(=O)N(Cc2ccccc2)c2ccccc2C(=O)N2CCOCC2)cc1,11.6
8,O=C(c1ccccc1SCc1ccc(F)cc1)N1CCOCC1,-9.3
9,COc1ccc(Cl)cc1C(=O)N1CCN(c2cccc(C)c2C)CC1,1.6
10,C/C(=N\NC(=O)CCC(=O)O)c1c(-c2ccccc2)c2cc(Cl)ccc2[nH]c1=O,-3.1
11,COc1ccc(/C(C)=N/N2C(=O)c3ccccc3C2=O)c(OC)c1,-8.2
12,O=C(NC(NC(=O)c1ccco1)c1ccc(Br)cc1)c1ccco1,1.7
13,CCC(=O)N/C(N)=N\c1nc(C)c2cc(C)cc(C)c2n1,14.6
14,O=C(NNc1ccc(F)cc1)C(O)(c1ccccc1)c1ccccc1,3.2
15,CS(=O)(=O)N(CC(=O)NCc1cccnc1)c1ccc(Cl)cc1,12.3
16,CCCc1nc2ccccc2n1CC(O)COc1ccc(C)cc1 (stereo not given),-35.6
17,O=S1(=O)CCC(NC(=S)SCc2ccccc2Br)C1 (stereo not given),9.2
18,S=C1NC2=C(C(c3ccc(Cl)cc3Cl)N1)N1CCC2CC1 (stereo not given),4.2
19,COc1cc(/C=C2\SC(N)=NC2=O)cc(I)c1OCc1ccc(Cl)cc1Cl,1.1
20,CC(=O)Nc1ccc(S(=O)(=O)/N=C2/NC(=O)/C(=C\c3ccco3)S2)cc1,19.2
21,O=c1oc2cc(OCCO)ccc2c2c1CCCC2,-5.8
22,CN1C(=O)NC(=O)/C(=C/c2ccc(-c3ccc(Cl)cc3)o2)C1=O,37

row,Compound,displacement [%]
1,O=C(O)c1cccc(CP(=O)(c2ccccc2)c2ccccc2)c1,3.3
2,Oc1ccc2ccccc2c1C=NN1CCN(Cc2ccccc2Cl)CC1,-13.4
3,O=C(COc1ccc([N+](=O)[O-])cc1)Nc1ccc(NC(=O)c2cccc(Cl)c2)cc1,-16.4
4,CC(=O)N1CCN(CC(C)(C)NS(=O)(=O)c2ccccc2)CC1,8.5
5,CC(=O)c1cccc(Nc2cc(C)nc3ncnn23)c1,9.1
6,O=C1C2C(C(=O)N1c1ccccc1)C1(c3ccccc3)C(=O)C2(c2ccccc2)C(c2ccccc2)=C1c1ccccc1 (stereo not given),1.8
7,CCc1ccc(NC(=O)CN2C(=O)c3ccccc3C2=O)cc1,10.1
8,COc1ccc(/C=C2\CCOC2=O)cc1,0.5
9,Cc1n[nH]c(=S)n(/N=C/c2ccc3c(c2)OCO3)c1=O,7.4
10,COc1ccc(NC(=O)/C=C/c2ccc3c(c2)OCO3)c([N+](=O)[O-])c1,13.5
11,O=C1CC(Sc2ncn[nH]2)C(=O)N1c1ccc(I)cc1 (stereo not given),-7.2
12,COc1cc(OC)cc(C(=O)Nc2sc3c(c2C(N)=O)CCC(C)C3)c1 (stereo not given),22.7
13,COc1ccccc1/C=C(/NC(=O)c1ccccc1)c1nc2ccccc2o1,1.2
14,CCOc1ccc2c(c1)-c1c(ssc1=S)C(C)(C)N2C(=O)CN1C(=O)c2ccccc2C1=O,-0.9
15,O=C(Nc1nccs1)c1ccc2c(c1)C(=O)N(C1CCCCC1)C2=O,-0.3
16,COc1ccc(NC(=S)NC(=O)c2ccc(Br)cc2)cc1,9.5
17,N/C(=N\OC(=O)c1cccc(Cl)c1)c1ccccc1,-11.3
18,O=C(NCCOCc1ccccc1)c1ccccc1Cl,-19.3
19,CCN(CC)c1ccc(NC(=O)Cc2ccc(Cl)cc2)cc1,16.6
20,O=C(CSc1nc2ccccc2s1)CSc1nc2ccccc2s1,-8.4
21,CCOC(=O)c1[nH]c(=O)[nH]c1CSC1=NC(=O)C(c2ccccc2)C(=O)N1 (stereo not given),-0.1
22,O=C(O)CCC(=O)N1N=C(c2cccs2)CC1c1cccc([N+](=O)[O-])c1 (stereo not given),10.7
